# In the supplement of paper PMC12632987:
# In all, about 2,300 sequences were measured (“median log2 fold change of GCK-ALFA target abundance (FLAG IP / Myc IP barcode read proportion)”: median about 0.095, lowest 2% from about -0.47 on). The list shows a part of the results.
# B1: LC3A_28_850 (protein)
# chain: SALDEQLAANLEKVKAAAAKGEEVTVTITVTSTTTLEDAKRIAAGMEEIVEAGKDLPRLTIIVDATEPIAQEVLTLLADTGDRLEEKYPNVTVIIALPEE
# B2: LC3A_free_2_2168 (protein)
# chain: ARYKVTVDVLGHAAGVAALFDVLAEAGLEVTVTYEDGTVERGSAAEHAARMRELAARGETVLVTIEFETDKATAEAVAAALDEVAERTGVAALIDIEKIA
# B3: LC3A_127_221 (protein)
# chain: MLEELLKLAEEAAELAREAIEDPSLDKLETLEKIEKLLEEALKLAKEAGVPEEVIEDIKQAIKLAEEAKKKSPEEQLETLRQLELLADGIAIELESLILK
# B4: LC3A_free_0_2101 (protein)
# chain: KTVVIEVVAISKEKISEEKLKKLKEKLKELAEKISEKYNAEVEVEIKEVDGRTVVTIKVKLEGMSIEEALEIADEIADEVEKIFKELGIEATIYVSVYEE
# B5: LC3A_28_1169 (protein)
# chain: SETEENAEKALKEAEEAKAKGEPAVITISLPSGATEEEVELVIETMEKIAELLKDIPGAAIIVDVDSGVKEEHLNKIMDKAEEIEEKYPNVSVIIALDED
# B6: LC3A_28_711 (protein)
# chain: GEIEANIAAALAEAEAAAAAGEEVVVTIKVPGTATEEDIEKVIAALERIAEILKDLKSAAIVVDVDGKVPQEYIDKLADAAEEIEKKYPNVTVIIALEES
# B7: LC3A_23_600 (protein)
# chain: MVTVEADHVVKNDPELAEEKTKKLLEEIKKILEKNKDYIKDYKIEVEFYTDEDGNTVVRITVTVKVKDDPEKAQEIANELISAFDEILPDAVIAYDVEED
# B8: LC3A_28_715 (protein)
# chain: SELEKSIEEALEKAKKAAEEGEEAVITIKVKGKATEEETEKVIEAIEEIAKITKDLKSTSIIVDIDGEVPQEHINKIMDKGEEVEKKYPNVTVIFALDEE
# B9: LC3A_3_1780 (protein)
# chain: MEERERELLERLRAAGKSEETLEAAREALELLREKGYEEARETFLEEAERLIDVPDELFLEFLEEVLELLKNEDLSEEELTEEIKRLARLTLSESEIIEL
# B10: LC3A_28_899 (protein)
# chain: GSALASAEAALAEVKAAVAAGDTSPLVVEVDAPSREEDTEKFLELLEELAEVASQRKGVTIIIDVSEDVPQENIDKIIDKAEEIEKKYPNVTVIIALPEN
# B11: LC3A_13_336 (protein)
# chain: MIKIEVETPEKLKKEVLKAIEENPGETIEITVTVKTEEDVDKFAEALEEVIDKAIEKGNKLNITIKGKRDNVLELSLLVGSYIAEHIDEADVTVSLEILP
# B12: LC3A_3_1892 (protein)
# chain: LEERVEETVERLKEAGASEETIELFLEAAELLLERGYYEALETLIDEVEELIDLPDEILLDFLEEVLEVLETEDLSEEELIERIKELARLAKNEGEIEEL
# B13: LC3A_3_1516 (protein)
# chain: MEELIKETLEKLKEAGKSEEVIEAVKEAMEELAEKGYEEALKVFAEEVEKLLDAPDEILLAFAEEVLELIKTSDLSEEELIKKIKELARTALAESEIIEL
# B14: LC3A_3_1772 (protein)
# chain: MEEKLERYRKLLEEAGFSEEVIEEALKAIKTFLEKGREEVAETFLELMLEAKDLPEDKLLVMASMALELAETSTVSEEELKKELTRTFENIAGIEELDEE
# B15: LC3A_3_1699 (protein)
# chain: MEELLARARAILEAQGRSPETTEAALRALRALLERGYEEAAERLLELLEESKDLSDEILLAFFEDVLRYVEEEDVDEEEAIEFIEEEYEIAKNEEEIIEL
# B16: LC3A_17_540 (protein)
# chain: MEELRRELAELLDRAEALVDRLAPYAPETAARARERLRRARELLEAGELREAAELLAETADEVADAVDELDWPDEDLRNLLADEFDALAIEADSILLKLE
# B17: LC3A_3_1819 (protein)
# chain: MEEEREETLEELREAGASEETLEAVDRAIRALLEKGYEEAARTFIELMRELKDLPSELLLELAREVLELIETSDDSEEEMKERIREIARTVRHEAEIIEL
# B18: LC3A_28_975 (protein)
# chain: SEIEEEIKKALAEAKAAAAAGEPTVITITVPGTATQEEVEKVIEALEEIAEILKDVPGSAIIIDLVGGVKQENRDKLAKAAEEIEKKYPNVTVIIALDEE
# B19: LC3A_3_1912 (protein)
# chain: AEERLERLRARAEALGHSPEVIAVLLEAARLFLEAGDEEGFELLERLAEALAGLDEGTQLAFAQDLLAELRALGDDREARRAAAKEFLRLAKNENEIIEI
# Target: MAP1LC3A, Q9H492
# Assay: median log2 fold change of GCK-ALFA target abundance (FLAG IP / Myc IP barcode read proportion) (log2 ratio); each designed protein is fused to an ALFA-tag nanobody in HEK293 cells to bring the named protein to FLAG-tagged glucokinase (GCK); Myc marks an untargeted standard; higher = target protein stabilised (more abundant)
# Details: target protein: 3xFLAG-MCP-GCK-ALFA reporter; HEK293 landing pad (RPLP)
# How it was run: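 Sequencing of reverse-transcribed, amplified circular RNA barcodes from anti-FLAG and anti-Myc immunoprecipitates provided the readout for an ALFA-nanobody-fused binder library recombined into HEK293 landing-pad cells. Those cells were induced with 2 μg mL^−1 doxycycline, transfected with a plasmid expressing a FLAG-tagged target and a Myc-tagged standard, and lysed after 48 h. Target abundance is the per-binder median log2 ratio of FLAG to Myc barcode read proportions. Only barcodes at a proportion of ≥10^−7 in both replicates and binders with ≥3 barcodes per replicate were kept, with a 10^−6 pseudocount added before the two replicates were pooled.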
row,Binder,median log2 fold change
1,B1,0.226
2,B2,0.0505
3,B3,0.0664
4,B4,0.108
5,B5,-0.195
6,B6,0.11
7,B7,-0.566
8,B8,0.128
9,B9,0.259
10,B10,-0.215
11,B11,-0.122
12,B12,-0.691
13,B13,0.181
14,B14,0.318
15,B15,0.0634
16,B16,-0.365
17,B17,0.335
18,B18,0.21
19,B19,0.195
